Laboratory results from PubChem BioAssay (NCI).
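Following 48 hours of exposure in 96-well plates, responses at five concentrations were used to interpolate endpoints linearly. GI50 marks 50% less growth. TGI is the concentration that stops growth completely.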

tested on: NCI-H322M lung; test: inhibition of tumour cell growth, NCI panel, 48 h

| SMILES | TGI [µM] | GI50 [µM] |
| --- | --- | --- |
| CCNc1c(C(=O)N(CC)CC)c(=O)[nH]c2ncccc12 | > 100 |  |
| N#Cc1c2ccccc2c2n1-c1ccccc1OC(c1ccccc1)C2=O (configuration not stated) | > 100 | 18.2 |
| Cc1ccccc1S(=O)(=O)N1[C@H](c2ccc(Cl)cc2)C(C(=O)N[C@@H](Cc2ccccc2)C(N)=O)=C[C@@H]1C(C)(C)C | 22.9 | 10.5 |
| CCOC(=O)CCc1c(C(=O)OCC)[nH]c(/C=C2\NC(=O)C(C)=C2CC)c1C | 20.2 |  |
| COc1ccc(S(=O)(=O)N/N=C/CN2C(=O)c3ccccc3C2=O)cc1OC | > 100 |  |
| COCN1CCN=c2c1c1c3c(c4ccccc4n23)CCC1 | > 100 |  |
| CC1=C(C(=O)Nc2ccc3[nH]ncc3c2)C(c2ccc(F)cc2)NC(=O)N1 (configuration not stated) | > 25 | > 25 |
| O=c1[nH]c(=O)n(COCc2ccccc2)c2ccc([N+](=O)[O-])cc12 | > 100 |  |
| Cc1[nH]c(C(=O)Nc2ccc(C(=O)N3CCNCC3)cc2OC(C)C)c(Cl)c1Cl | 5.54 | 2.1 |
| CCNC(=O)/C=C/CCC#Cc1ccc(-c2ccc(-c3cccs3)s2)s1 | > 100 |  |
| COc1cccc2c1C1(O)C2CCCC12OCCCO2 (configuration not stated) | > 100 |  |
| CC/C=C\C/C=C\C[C@H](O)C/C=C1/C(=O)C=C[C@H]1C/C=C\CCC(=O)OC | > 8.25 | > 8.25 |
| O=[N+]([O-])c1cc(O)c(O)cc1-c1cn2ccsc2n1 | 98.1 | 31.9 |
| COc1cc(C(=O)/C=C/c2c(-c3ccc(F)cc3)nc3sc(C)cn23)cc(OC)c1OC | > 100 | 8.65 |
| CC(=Nc1c2ccccc2nc2ccccc12)N(C)C | > 100 |  |
| CC1(C)[C@@H](Cn2cnc3c(=O)[nH]c(N)nc32)CC[C@@]1(C)CO | > 100 |  |
| COc1cc2c(cc1OCCCOC1=C=C=C(c3ccc4c(c3)c3cc(-c5ccc(OCCCOc6cc7c(cc6OC)C(=O)N6CCC[C@H]6C=N7)cc5)ccc3n4S(=O)(=O)c3ccc(C)cc3)C=C1)N=C[C@@H]1CCCN1C2=O | 15 | 7.55 |
| NCCNCCCCCCNC(=O)c1cccc2cc3ccccc3nc12 | 10.3 |  |
| CC1(C)CN(c2ccccc2)C(=O)C1OC(=O)[C@@]1(C)C[C@@H]2C=C[C@H]1C2 (some centres not stated) | > 100 |  |
| O=c1[nH]c(-c2ccccc2)nc2ccc(Cl)cc12 | > 100 |  |
| COc1ccc(Nc2ccnc(NCCNc3ccnc4cc(Cl)ccc34)n2)cc1 | 10.8 | 2.25 |
| O=C(NCCCCNCCCNC(=O)c1ccccc1)c1ccccc1 | > 100 |  |
| N#CC(C#N)=Cc1c(O)ccc2ccccc12 | 31.2 |  |
| OCCN(CCO)c1cccc(N(CCO)CCO)c1 | > 100 |  |

| SMILES | TGI [µM] | GI50 [µM] |
| --- | --- | --- |
| COc1ccc(Nc2ncccc2/C=C/C(=O)c2cc(OC)c(OC)c(OC)c2)cc1 | 6.74 | 2.13 |
| CC(=O)NC1=C(C)C(=O)c2c(nc3n2CCC3O)C1=O (configuration not stated) | > 100 |  |
| COc1ccc(C(=C(I)c2ccccc2)c2ccc(OC)cc2)cc1 | > 100 |  |
| [N-]=[N+]=NC1CC(n2cc(COCC(F)(F)F)c(=O)[nH]c2=O)OC1CO (configuration not stated) | > 100 |  |
| CCCC(CC)c1c(O)c(O)c(C(CC)CCC)c(C(CC)CCC)c1C(CC)CCC (configuration not stated) | > 10 |  |
| COC(=O)c1ccccc1C#CCCCOS(C)(=O)=O | > 10 |  |
| O=C1CCC2CCc3cccc4oc1c2c34 (configuration not stated) | > 100 |  |
| CN1C/C(=C\c2ccc(Cl)cc2)C(=O)/C(=C/c2ccc(Cl)cc2)C1 | > 100 |  |
| O=C(c1ccccc1)c1c(C(F)(F)F)n([O-])c2cc(Cl)c(Cl)cc2[n+]1=O | 9.09 |  |
| O=c1c2ccccc2n2nnc3ccc(NCCCNCCNCCCNc4ccc5nnn6c7ccccc7c(=O)c4c56)c1c32 | > 47.4 |  |
| O=C1CCC2(CC1CCSc1ccccc1)OCCO2 (configuration not stated) | > 100 |  |
| CO/C(=N\N=C\c1ccc(Cl)cc1Cl)c1ccncc1 | > 10 |  |
| COc1ccc(-c2nc(-c3cc4ccccc4oc3=O)cs2)cc1 | > 100 |  |
| O=C(Cn1c(=O)c(-c2ccccc2)nc2ccccc21)c1cccnc1 | > 100 | > 100 |
| O=C(CN1CCCCC1)c1ccc2c(c1)Sc1ccccc1O2 | 29 |  |
| CS(=O)(=O)N(CCC#N)c1ccc(/C=N/NC(=O)CC(=O)Nc2cccc(Cl)c2)cc1 | > 100 |  |
| NC1CCCCC1N.O=C([O-])P(=O)([O-])[O-].[Na+].[Pt+4] (configuration not stated) | > 100 | > 100 |
| CC(=O)NC1C(OCc2ccccc2)OC(CO)C(O)C1OCC(=O)NC(C)C(=O)NC(CCC(=O)NCCCCCNc1c2ccccc2nc2cccc([N+](=O)[O-])c12)C(N)=O (configuration not stated) | 0.0104 |  |
| S=c1nc2[nH]c3ccc(Br)cc3c2n[nH]1 | > 100 |  |
| Cc1cc(=O)c2cc(N=Cc3ccc([N+](=O)[O-])o3)ccc2o1 | > 100 |  |
| CNC(=O)c1c(NC(=O)c2cccc(C(F)(F)F)c2)sc2c1CCC(=O)C2 | 18.1 | 2.74 |
| Cc1ccc2c[c]1[Hg][CH2]COS2(=O)=O | > 100 | > 100 |
| O=C1CCCC2=C1C(c1ccc3c(c1)OCO3)Nc1ccc3ccccc3c12 (configuration not stated) | > 100 |  |
| Cc1cc(NS(=O)(=O)c2ccc(NC(=O)c3cccc4c(NNc5ccc(S(=O)(=O)N=C(N)N)cc5)c5ccccc5nc34)cc2)no1 | > 100 |  |
